The compounds below were run on Huh7 cells that stably maintain a subgenomic HCV replicon (S22.3 cell-line) (assay: Cell based HCV RNA replication assay (S22.3 replicon cells, real-time RT-PCR)). Details: Hepatitis C virus, Huh-7, 72 h.
From the text: Preparation of Test Compound
Application of Test Compound to Cells
Extraction of Total Cellular RNA
Quantification of Total Cellular RNA

`O=C(O)c1ccc2c(C3CCCCC3)c(-c3ccoc3)[nH]c2c1` [compound 102] and `Cn1c(-c2ccoc2)c(C2CCCCC2)c2ccc(C(=O)O)cc21` [compound 107] cannot be ordered by EC50: over 1 µM for the first, over 1 µM for the second.

`Cn1c(-c2ccoc2)c(C2CCCC2)c2ccc(C(=O)O)cc21` [compound 111] and `Cn1c(-c2ccc(N)cc2)c(C2CCCC2)c2ccc(C(=O)O)cc21` [compound 131] cannot be ordered by EC50: over 1 µM for the first, over 1 µM for the second.

`Cn1c(-c2cnco2)c(C2CCCC2)c2ccc(C(=O)O)cc21` [compound 128] showed an EC50 of over 1 µM.

Same assay, conditions: Hepatitis C virus, Huh-7; Table 1; S22.3 cells, 72 hours incubation, HCV RNA by RT-PCR; read-out: EC50

`Cn1c(-c2ccccn2)c(C2CCCCC2)c2ccc(C(=O)O)cc21` [compound 106] and `Cn1c(-c2ccccn2)c(C2CCCC2)c2ccc(C(=O)O)cc21` [compound 115] cannot be ordered by EC50: over 1 µM for the first, over 1 µM for the second.

Compared with `Cc1ccc(-c2c(C3CCCCC3)c3ccc(C(=O)O)cc3n2C)nc1` [compound 108], `Cc1cccc(-c2c(C3CCCC3)c3ccc(C(=O)O)cc3n2C)n1` [compound 133] is higher in EC50: under 1 µM for the first, over 1 µM for the second. The first is the more potent here.

`Cn1c(-c2cnccn2)c(C2CCCCC2)c2ccc(C(=O)O)cc21` [compound 109] and `Cn1c(-c2cnccn2)c(C2CCCC2)c2ccc(C(=O)O)cc21` [compound 135] cannot be ordered by EC50: over 1 µM for the first, over 1 µM for the second.

`Cn1c(-c2cccc(N)n2)c(C2CCCCC2)c2ccc(C(=O)O)cc21` [compound 112] and `Cc1nc(-c2c(C3CCCC3)c3ccc(C(=O)O)cc3n2C)cs1` [compound 121] cannot be ordered by EC50: over 1 µM for the first, over 1 µM for the second.

`Cn1c(-c2cscn2)c(C2CCCC2)c2ccc(C(=O)O)cc21` [compound 117] and `Cn1c(-c2nccs2)c(C2CCCC2)c2ccc(C(=O)O)cc21` [compound 129] cannot be ordered by EC50: over 1 µM for the first, over 1 µM for the second.

`CC(=O)Nc1nc(-c2c(C3CCCC3)c3ccc(C(=O)O)cc3n2C)cs1` [compound 118] and `CNc1nc(-c2c(C3CCCC3)c3ccc(C(=O)O)cc3n2C)cs1` [compound 119] cannot be ordered by EC50: over 1 µM for the first, over 1 µM for the second.

`COCCNc1nc(-c2c(C3CCCC3)c3ccc(C(=O)O)cc3n2C)cs1` [compound 123] and `CN(C)CCNc1nc(-c2c(C3CCCC3)c3ccc(C(=O)O)cc3n2C)cs1` [compound 127] cannot be ordered by EC50: over 1 µM for the first, over 1 µM for the second.

`Cn1c(-c2ccsc2)c(C2CCCC2)c2ccc(C(=O)O)cc21` [compound 132] and `O=C(O)c1ccc2c(C3CCCC3)c(-c3ccccn3)sc2c1` [compound 138] cannot be ordered by EC50: over 1 µM for the first, over 1 µM for the second.

`O=C(O)c1ccc2c(C3CCCC3)c(-c3ccccn3)oc2c1` [compound 141] and `O=C(O)c1ccc2c(C3CCCC3)c(-c3ccccn3)[nH]c2c1` [compound 145] cannot be ordered by EC50: over 1 µM for the first, over 1 µM for the second.

Source: US7157486B2, “Viral polymerase inhibitors” (Boehringer Ingelheim (Canada) Ltd., priority 2001, dated 2007)
